# Some of the results follow.
# B1: MSMEG3662-2a (Mycobacterium smegmatis), A0QYH7_MYCS2 (protein)
# chain: MGDTLTAGQKLERGGSLQSGNGAYTLTLQDDGNLVLYARDKAVWSTGTNGQDVVRAEVQTDGNFVLYTAEKPVWHTDTKGKKEVKLVLQDDRNLVLYAKDGPAWSSKTDTTEPPPPAPEPEKEAEVAPAAAEEAAPAPVAEPAPAEPAPAAPPPAPPAPRTYTVVSGDTLWAIAERFYGDGSKYQQIADASGIANPDLIHPGQVLTIP
# Assays:
# Assay in all cases: glycan array binding signal (z-score within array); higher = stronger binding
# Settings in all cases: glycan notation: IUPAC condensed, linker removed
# Neu5Ac(a2-3)Gal(b1-4)Glc = target: Neu5Ac(a2-3)Gal(b1-4)Glc
# Method in brief: (§1)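 Glycan array data were curated from 3228 arrays in the Consortium for Functional Glycomics database and kept only where the protein sequence was available. Glycan names were converted to IUPAC-condensed notation, and columns mapping to the same glycan were averaged. The binding signal is a within-array Z-score, averaged across arrays of the same protein sequence at different concentrations or buffers and across linkers. Negative Z-scores can be read as non-binding.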
# [1] = target: Neu5Ac(a2-3)Gal(b1-4)GlcNAc
# Method in brief: as §1
# [2] = target: Neu5Ac(a2-3)Gal(b1-4)GlcNAc(b1-2)Man
# Method in brief: as §1
# [3] = target: Neu5Ac(a2-3)Gal(b1-4)GlcNAc(b1-2)Man(a1-3)[GlcNAc(b1-4)][Neu5Ac(a2-3)Gal(b1-4)GlcNAc(b1-2)Man(a1-6)]Man(b1-4)GlcNAc(b1-4)GlcNAc
# Method in brief: as §1
# [4] = target: Neu5Ac(a2-3)Gal(b1-4)GlcNAc(b1-2)Man(a1-3)[Neu5Ac(a2-3)Gal(b1-4)GlcNAc(b1-2)Man(a1-6)]Man(b1-4)GlcNAc(b1-4)GlcNAc
# Method in brief: as §1
# [5] = target: Neu5Ac(a2-3)Gal(b1-4)GlcNAc(b1-2)Man(a1-3)[Neu5Ac(a2-3)Gal(b1-4)GlcNAc(b1-2)Man(a1-6)]Man(b1-4)GlcNAc(b1-4)[Fuc(a1-6)]GlcNAc
# Method in brief: as §1
# [6] = target: Neu5Ac(a2-3)Gal(b1-4)GlcNAc(b1-2)Man(a1-3)[Neu5Ac(a2-6)Gal(b1-4)GlcNAc(b1-2)Man(a1-6)]Man(b1-4)GlcNAc(b1-4)GlcNAc
# Method in brief: as §1
# [7] = target: Neu5Ac(a2-3)Gal(b1-4)GlcNAc(b1-2)[Neu5Ac(a2-3)Gal(b1-4)GlcNAc(b1-4)]Man(a1-3)[GlcNAc(b1-4)][Neu5Ac(a2-3)Gal(b1-4)GlcNAc(b1-2)[Neu5Ac(a2-3)Gal(b1-4)GlcNAc(b1-6)]Man(a1-6)]Man(b1-4)GlcNAc(b1-4)GlcNAc
# Method in brief: as §1
# [8] = target: Neu5Ac(a2-3)Gal(b1-4)GlcNAc(b1-2)[Neu5Ac(a2-3)Gal(b1-4)GlcNAc(b1-4)]Man(a1-3)[GlcNAc(b1-4)][Neu5Ac(a2-3)Gal(b1-4)GlcNAc(b1-4)Man(a1-6)]Man(b1-4)GlcNAc(b1-4)GlcNAc
# Method in brief: as §1
# [9] = target: Neu5Ac(a2-3)Gal(b1-4)GlcNAc(b1-2)[Neu5Ac(a2-3)Gal(b1-4)GlcNAc(b1-6)]Man(a1-6)[Neu5Ac(a2-3)Gal(b1-4)GlcNAc(b1-2)Man(a1-3)]Man(b1-4)GlcNAc(b1-4)GlcNAc
# Method in brief: as §1
# [10] = target: Neu5Ac(a2-3)Gal(b1-4)GlcNAc(b1-2)[Neu5Ac(a2-3)Gal(b1-4)GlcNAc(b1-6)]Man(a1-6)[Neu5Ac(a2-3)Gal(b1-4)GlcNAc(b1-2)Man(a1-3)][GlcNAc(b1-4)]Man(b1-4)GlcNAc(b1-4)GlcNAc
# Method in brief: as §1
# [11] = target: Neu5Ac(a2-3)Gal(b1-4)GlcNAc(b1-3)Gal
# Method in brief: as §1
# [12] = target: Neu5Ac(a2-3)Gal(b1-4)GlcNAc(b1-3)Gal(b1-3)GlcNAc
# Method in brief: as §1
# [13] = target: Neu5Ac(a2-3)Gal(b1-4)GlcNAc(b1-3)Gal(b1-4)GlcNAc
# Method in brief: as §1
# [14] = target: Neu5Ac(a2-3)Gal(b1-4)GlcNAc(b1-3)Gal(b1-4)GlcNAc(b1-2)Man(a1-3)[Neu5Ac(a2-3)Gal(b1-4)GlcNAc(b1-3)Gal(b1-4)GlcNAc(b1-2)Man(a1-6)]Man(b1-4)GlcNAc(b1-4)GlcNAc
# Method in brief: as §1
# [15] = target: Neu5Ac(a2-3)Gal(b1-4)GlcNAc(b1-3)Gal(b1-4)GlcNAc(b1-3)Gal(b1-4)GlcNAc
# Method in brief: as §1
# [16] = target: Neu5Ac(a2-3)Gal(b1-4)GlcNAc(b1-3)Gal(b1-4)GlcNAc(b1-3)Gal(b1-4)GlcNAc(b1-2)Man(a1-3)[Neu5Ac(a2-3)Gal(b1-4)GlcNAc(b1-3)Gal(b1-4)GlcNAc(b1-3)Gal(b1-4)GlcNAc(b1-2)Man(a1-6)]GalNAc
# Method in brief: as §1
# [17] = target: Neu5Ac(a2-3)Gal(b1-4)GlcNAc(b1-3)Gal(b1-4)GlcNAc(b1-3)GalNAc
# Method in brief: as §1
# [18] = target: Neu5Ac(a2-3)Gal(b1-4)GlcNAc(b1-3)Gal(b1-4)GlcNAc(b1-3)[Neu5Ac(a2-3)Gal(b1-4)GlcNAc(b1-3)Gal(b1-4)GlcNAc(b1-6)]GalNAc
# Method in brief: as §1
# [19] = target: Neu5Ac(a2-3)Gal(b1-4)GlcNAc(b1-3)Gal(b1-4)GlcNAc(b1-6)[Gal(b1-3)]GalNAc
# Method in brief: as §1
# [20] = target: Neu5Ac(a2-3)Gal(b1-4)GlcNAc(b1-3)Gal(b1-4)[Fuc(a1-3)]GlcNAc
# Method in brief: as §1
# [21] = target: Neu5Ac(a2-3)Gal(b1-4)GlcNAc(b1-3)GalNAc
# Method in brief: as §1
# [22] = target: Neu5Ac(a2-3)Gal(b1-4)GlcNAc(b1-3)[Neu5Ac(a2-3)Gal(b1-4)GlcNAc(b1-6)]GalNAc
# Method in brief: as §1
# [23] = target: Neu5Ac(a2-3)Gal(b1-4)GlcNAc(b1-6)GalNAc
# Method in brief: as §1
# [24] = target: Neu5Ac(a2-3)Gal(b1-4)GlcNAc(b1-6)[Gal(b1-3)]GalNAc
# Method in brief: as §1
# [25] = target: Neu5Ac(a2-3)Gal(b1-4)GlcNAc(b1-6)[Neu5Ac(a2-3)Gal(b1-3)]GalNAc
# Method in brief: as §1
# [26] = target: Neu5Ac(a2-3)Gal(b1-4)GlcNAc6S
# Method in brief: as §1
# [27] = target: Neu5Ac(a2-3)Gal(b1-4)[Fuc(a1-3)]GlcNAc
# Method in brief: as §1
# [28] = target: Neu5Ac(a2-3)Gal(b1-4)[Fuc(a1-3)]GlcNAc(b1-2)Man
# Method in brief: as §1
# [29] = target: Neu5Ac(a2-3)Gal(b1-4)[Fuc(a1-3)]GlcNAc(b1-3)Gal
# Method in brief: as §1
# [30] = target: Neu5Ac(a2-3)Gal(b1-4)[Fuc(a1-3)]GlcNAc(b1-3)Gal(b1-4)GlcNAc
# Method in brief: as §1
# [31] = target: Neu5Ac(a2-3)Gal(b1-4)[Fuc(a1-3)]GlcNAc(b1-3)Gal(b1-4)[Fuc(a1-3)]GlcNAc(b1-3)Gal(b1-4)[Fuc(a1-3)]GlcNAc
# Method in brief: as §1
# [32] = target: Neu5Ac(a2-3)Gal(b1-4)[Fuc(a1-3)]GlcNAc(b1-3)GalNAc
# Method in brief: as §1
# [33] = target: Neu5Ac(a2-3)Gal(b1-4)[Fuc(a1-3)]GlcNAc(b1-6)[Gal(b1-3)]GalNAc
# Method in brief: as §1
# [34] = target: Neu5Ac(a2-3)Gal(b1-4)[Fuc(a1-3)]GlcNAc(b1-6)[Neu5Ac(a2-3)Gal(b1-3)]GalNAc
# Method in brief: as §1
# [35] = target: Neu5Ac(a2-3)Gal(b1-4)[Fuc(a1-3)]GlcNAc6S
# Method in brief: as §1
# [36] = target: Neu5Ac(a2-3)Gal6S(b1-4)GlcNAc
# Method in brief: as §1
# [37] = target: Neu5Ac(a2-3)Gal6S(b1-4)[Fuc(a1-3)]GlcNAc
# Method in brief: as §1
binder,measurement,setting,value
B1,glycan array binding signal (z-score),Neu5Ac(a2-3)Gal(b1-4)Glc,0.572
same,glycan array binding signal (z-score),[1],-0.035
same,glycan array binding signal (z-score),[2],0.118
same,glycan array binding signal (z-score),[3],-0.055
same,glycan array binding signal (z-score),[4],-0.102
same,glycan array binding signal (z-score),[5],-0.026
same,glycan array binding signal (z-score),[6],-0.086
same,glycan array binding signal (z-score),[7],-0.11
same,glycan array binding signal (z-score),[8],-0.123
same,glycan array binding signal (z-score),[9],0.088
same,glycan array binding signal (z-score),[10],-0.107
same,glycan array binding signal (z-score),[11],-0.15
same,glycan array binding signal (z-score),[12],-0.181
same,glycan array binding signal (z-score),[13],0.065
same,glycan array binding signal (z-score),[14],0.207
same,glycan array binding signal (z-score),[15],-0.05
same,glycan array binding signal (z-score),[16],0.04
same,glycan array binding signal (z-score),[17],-0.087
same,glycan array binding signal (z-score),[18],-0.236
same,glycan array binding signal (z-score),[19],-0.109
same,glycan array binding signal (z-score),[20],0.052
same,glycan array binding signal (z-score),[21],0.101
same,glycan array binding signal (z-score),[22],-0.194
same,glycan array binding signal (z-score),[23],-0.234
same,glycan array binding signal (z-score),[24],-0.138
same,glycan array binding signal (z-score),[25],-0.173
same,glycan array binding signal (z-score),[26],-0.169
same,glycan array binding signal (z-score),[27],-0.124
same,glycan array binding signal (z-score),[28],-0.056
same,glycan array binding signal (z-score),[29],-0.11
same,glycan array binding signal (z-score),[30],0.136
same,glycan array binding signal (z-score),[31],-0.044
same,glycan array binding signal (z-score),[32],0.43
same,glycan array binding signal (z-score),[33],-0.06
same,glycan array binding signal (z-score),[34],-0.189
same,glycan array binding signal (z-score),[35],-0.001
same,glycan array binding signal (z-score),[36],-0.121
same,glycan array binding signal (z-score),[37],-0.044

# Reference: the supplement of paper PMC8728848
